According to US20180312565A1 (Affibody, published 2018):

T1: human PD-L2 Fc Chimera (R&D Systems, cat. no. 1224-PL-100) (human, UniProt Q9BQ51 20-219, biotinylated in ELISA)
T1 construct: bought; also called hPD-L2; not shown: Fc part of the bought Fc chimera, not described
T1 sequence (looked up): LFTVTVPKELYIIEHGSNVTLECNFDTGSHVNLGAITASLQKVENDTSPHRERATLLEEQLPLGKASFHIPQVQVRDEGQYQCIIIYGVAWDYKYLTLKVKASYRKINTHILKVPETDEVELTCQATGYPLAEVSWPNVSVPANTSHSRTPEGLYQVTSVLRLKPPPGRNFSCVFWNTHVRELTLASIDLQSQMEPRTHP

T2: human B7-H4 (R&D Systems, cat. no. 6576-B7-50) (human, UniProt Q7Z7D3 29-258, biotinylated in ELISA)
T2 construct: bought; also called hB7-H4
T2 sequence (looked up): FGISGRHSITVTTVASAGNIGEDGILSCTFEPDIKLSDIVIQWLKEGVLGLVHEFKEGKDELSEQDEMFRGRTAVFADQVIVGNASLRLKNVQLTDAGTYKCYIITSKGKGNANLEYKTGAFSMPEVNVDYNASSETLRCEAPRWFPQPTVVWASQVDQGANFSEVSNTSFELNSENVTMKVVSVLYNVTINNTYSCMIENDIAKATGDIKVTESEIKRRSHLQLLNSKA

T3: human B7-H3 Fc Chimera (R&D Systems, cat. no. 1027-B3-100) (human, UniProt Q5ZPR3-2 29-245, biotinylated in ELISA)
T3 construct: bought; also called hB7-H3; not shown: Fc part of the bought Fc chimera, not described
T3 sequence (looked up): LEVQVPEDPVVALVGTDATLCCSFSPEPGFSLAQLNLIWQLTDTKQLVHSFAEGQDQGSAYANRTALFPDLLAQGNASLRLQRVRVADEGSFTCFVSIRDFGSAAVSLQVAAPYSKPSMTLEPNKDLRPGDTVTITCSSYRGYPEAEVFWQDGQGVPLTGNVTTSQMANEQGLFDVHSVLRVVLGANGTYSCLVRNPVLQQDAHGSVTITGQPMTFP


Legend:
[1] = biological target: T1, human PD-L2 Fc Chimera (R&D Systems, …); test: SPR
Procedure: (§1) One flow cell surface on each chip was activated and deactivated for use as blank during analyte injections. In the kinetic experiment, HBS-EP was used as running buffer and the flow rate was 50 μl/min. The analytes, i.e. the Z variants, were each diluted in HBS-EP buffer within a concentration range of 1000 to 0.01 nM and injected for 5 min, followed by dissociation in running buffer for 15-25 min. After dissociation, the surfaces were regenerated with one or two injections of 0.1% SDS. Kinetic constants were calculated from the sensorgrams using the Langmuir 1:1 model of BiaEvaluation software 4.1 (GE Healthcare).

[2] = biological target: T2, human B7-H4 (R&D Systems, cat. no. …); test: SPR
Procedure: as §1

[3] = biological target: T4, human PD-L1 Fc Chimera (R&D Systems, cat. no. 156-B7-100) (human, UniProt Q9NZQ7 19-239, biotinylated with Sulfo-NHS-LC-Biotin in ELISA and AlphaLISA; not biotinylated in SPR); test: SPR, hPD-L1 immobilized
T4 construct: bought; also called hPD-L1; biotinylated hPD-L1; not shown: Fc part of the bought Fc chimera, not described
Procedure: as §1

[4] = biological target: T4, human PD-L1 Fc Chimera (R&D Systems, …); test: AlphaLISA, blocks hPD-L1 binding to hPD-1
Procedure: Finally, streptavidin coated Donor beads (Perkin Elmer, cat. no. 6772002) were added to a final concentration of 40 μg/ml and incubated for 30 min. All incubations were performed at RT in the dark. The plate was analyzed in the EnSpire instrument and the IC50 values were calculated using GraphPad Prism 5.

[5] = biological target: T5, PD-L1 on PD-L1 expressing cells (IFNg-stimulated THP-1 cells; MDA-MB-231 cells) (UniProt Q9NZQ7 19-290, limits assumed); test: FACS, IFNg-stimulated THP-1 cells, 10 µg/ml, normalized to Z13091
T5 construct: whole, on cells
Procedure: Cells incubated with buffer alone were used as negative controls. […] Data from 10,000 cells were obtained using a FACS Calibur ([…]) and the data was analyzed using Flowing software 2.5.0 (Turku University). Mean fluorescence intensity (MFI) was used as a read out of binding capacity.

[6] = biological target: T3, human B7-H3 Fc Chimera (R&D Systems, …); test: SPR
Procedure: as §1

[7] = biological target: T6, mouse PD-L1 Fc Chimera (R&D Systems, cat. no. 1019-B7) (mouse, UniProt Q9EP73 19-238); test: SPR
T6 construct: bought; also called mPD-L1; not shown: Fc part of the bought Fc chimera, not described
Procedure: as §1

[8] = biological target: T1, human PD-L2 Fc Chimera (R&D Systems, …); test: SPR (Biacore 2000), hPD-L2 immobilized on CM5 chip, Z variant injected at 50, 5 and 0.5 nM
Procedure: as §1

[9] = biological target: T3, human B7-H3 Fc Chimera (R&D Systems, …); test: SPR (Biacore 2000), hB7-H3 immobilized on CM5 chip, Z variant injected at 50, 5 and 0.5 nM
Procedure: as §1

T6 sequence (Q9EP73 19-238, change not shown): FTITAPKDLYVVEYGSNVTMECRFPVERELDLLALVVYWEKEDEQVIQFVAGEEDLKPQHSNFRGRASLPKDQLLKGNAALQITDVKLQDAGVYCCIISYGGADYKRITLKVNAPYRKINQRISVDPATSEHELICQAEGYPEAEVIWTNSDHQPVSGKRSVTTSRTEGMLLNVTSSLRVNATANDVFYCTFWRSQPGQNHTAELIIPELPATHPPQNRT

Row | binding result [1] | binding result [2] | Kd [3] [nM] | koff [3] [s⁻¹] | kon [3] [M⁻¹ s⁻¹] | IC50 [4] [nM] | MFI (normalized) [5] | binding result [6] | binding result [7] | binding result [8] | binding result [9] | Binder
1 | no binding (tested: 50 nM) | no binding (tested: 50 nM) | 2.5 | 0.0015 | 610000 | 3.9 | 0.76 | – | – | – | – | His6-Z13112 (designed binder) MGSSHHHHHHLQVDAKYAKERNAAAFEILTLPNLTNEQHWAFIWKLDDDPSQSSELLSEAKKLNDSQAPKVD
2 | no binding (tested: 50 nM) | – | 11 | 0.0087 | 790000 | 2.3 | 0.81 | no binding (tested: 50 nM) | – | – | – | His6-Z13164 (designed binder) MGSSHHHHHHLQVDAKYAKERNNAAQEILQLPNLTQLQRWAFIWKLDDDPSQSSELLSEAKKLNDSQAPKVD
3 | no binding (tested: 50 nM) | no binding (tested: 50 nM) | – | – | – | 0.88 | 1 | no binding (tested: 50 nM) | no binding (tested: 50 nM) | – | – | His6-Z13088 (designed binder) MGSSHHHHHHLQVDAKYAKERNNAATEILRLPNLTAGQTWAFIWKLDDDPSQSSELLSEAKKLNDSQAPKVD
4 | no binding (tested: 50 nM) | no binding (tested: 50 nM) | 4.1 | 0.0064 | 1.6e+06 | 42 | 0.75 | – | – | – | – | His6-Z13304 (designed binder) MGSSHHHHHHLQVDAKYAKERNNAASEILALPNLTQLQYWAFIWKLADDPSQSSELLSEAKKLNDSQAPKVD
5 | no binding (tested: 50 nM) | no binding (tested: 50 nM) | 1.5 | 0.0035 | 2.4e+06 | 2.2 | 0.91 | no binding (tested: 50 nM) | no binding (tested: 50 nM) | – | – | His6-Z13169 (designed binder) MGSSHHHHHHLQVDAKYAKERNRAAQEILVLPNLTRKQQWAFIWKLDDDPSQSSELLSEAKKLNDSQAPKVD
6 | no binding (tested: 50 nM) | no binding (tested: 50 nM) | – | – | – | 1.1 | 1.04 | no binding (tested: 50 nM) | no binding (tested: 50 nM) | – | – | His6-Z13154 (designed binder) MGSSHHHHHHLQVDAKYAKERNDAAYEILQLPNLTKRQVWAFIWKLDDDPSQSSELLSEAKKLNDSQAPKVD
7 | – | – | 1.5 | 0.0025 | 1.7e+06 | 1.4 | 1.09 | – | no binding (tested: 50 nM) | no binding (tested: 50 nM) | no binding (tested: 50 nM) | His6-Z13156 (designed binder) MGSSHHHHHHLQVDAKYAKERNQAAVEILQLPNLTAAQYWAFIWKLDDDPSQSSELLSEAKKLNDSQAPKVD
8 | no binding (tested: 50 nM) | – | 0.64 | 0.0013 | 2e+06 | 1.3 | 1.24 | no binding (tested: 50 nM) | no binding (tested: 50 nM) | – | – | His6-Z13165 (designed binder) MGSSHHHHHHLQVDAKYAKERNYAAWEILRLPNLTASQYWAFIWKLDDDPSQSSELLSEAKKLNDSQAPKVD
9 | no binding (tested: 50 nM) | – | 8.3 | 0.0056 | 670000 | 2.4 | 0.91 | no binding (tested: 50 nM) | – | – | – | His6-Z13158 (designed binder) MGSSHHHHHHLQVDAKYAKERNDAAFEILQLPNLTNSQHWAFIWKLEDDPSQSSELLSEAKKLNDSQAPKVD
10 | no binding (tested: 50 nM) | no binding (tested: 50 nM) | 0.97 | 0.0056 | 5.8e+06 | 1.3 | 0.89 | no binding (tested: 50 nM) | no binding (tested: 50 nM) | – | – | His6-Z13198 (designed binder) MGSSHHHHHHLQVDAKYAKERNAAAYEILTLPNLTNKQRWAFIWKLDDDPSQSSELLSEAKKLNDSQAPKVD
11 | no binding (tested: 50 nM) | no binding (tested: 50 nM) | 1.6 | 0.0017 | 1e+06 | 5.6 | 0.56 | – | no binding (tested: 50 nM) | – | – | His6-Z13147 (designed binder) MGSSHHHHHHLQVDAKYAKERNRAAYEILQLPNLTHQQTWAFIWKLDDDPSQSSELLSEAKKLNDSQAPKVD
